Whole data set: some 33,000 sequences, median “E-score (-0.5 to 0.5)” near -0.016, cut for the highest 2% near 0.32. The list shows a part of the results.
Each sequence was assayed against T1, Stp1 (UniProt B3LFK1) (assay: PBM E-score (8-mer binding enrichment) (E-score (-0.5 to 0.5)); higher = stronger / more preferred TF binding; most listed sequences are background and not binding sites). Conditions: protein concentration: 200 nM; construct: GST-full length.
T1 sequence: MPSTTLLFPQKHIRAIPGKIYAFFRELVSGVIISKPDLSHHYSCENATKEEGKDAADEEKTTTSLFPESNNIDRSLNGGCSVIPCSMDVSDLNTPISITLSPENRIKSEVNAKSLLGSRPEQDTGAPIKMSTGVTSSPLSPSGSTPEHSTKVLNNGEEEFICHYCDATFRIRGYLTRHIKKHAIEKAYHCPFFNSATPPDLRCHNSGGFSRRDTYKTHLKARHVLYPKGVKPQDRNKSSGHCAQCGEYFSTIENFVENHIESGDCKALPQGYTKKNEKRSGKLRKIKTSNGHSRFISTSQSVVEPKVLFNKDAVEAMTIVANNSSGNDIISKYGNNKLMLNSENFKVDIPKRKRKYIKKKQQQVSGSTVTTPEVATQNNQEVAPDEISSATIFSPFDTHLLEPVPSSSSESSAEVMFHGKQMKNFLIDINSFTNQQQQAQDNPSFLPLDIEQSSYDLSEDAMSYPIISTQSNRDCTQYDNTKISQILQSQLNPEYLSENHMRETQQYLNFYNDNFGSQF
Method in brief: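 Using PURExpress in vitro transcription/translation, GST-tagged yeast transcription factors were made in full-length or DNA-binding-domain form. These were applied at about 100-200 nM to double-stranded universal all-10-mer Agilent arrays, and bound protein was detected with fluorescent anti-GST. Scans were normalised with masliner before the Universal PBM Analysis Suite assigned E-scores to ungapped eight-base words pooled with their reverse complements.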

Sequence | PBM E-score
GTCCGGTA | -0.18
ATTTACCG | 0.0264
AACCTCAA | -0.137
CATATGCG | 0.158
GGCTCTTA | 0.123
CAATACCA | 0.0554
TCTACTAA | 0.093
AAATCGCG | 0.0514
GGTAGAGA | -0.101
TCCATCGA | -0.0911
TGCGCGAA | 0.147
GAGATCGA | 0.0205
GCTGACCC | -0.317
ACGATCAA | 0.0497
CCTCCACC | -0.269
CAACTGGC | 0.0583
ACTTTACT | 0.00333
ACGGAGCA | 0.117
CCATACGC | 0.0591
AGTGGTTA | -0.00537
AGGGTAGG | -0.212
AAGCCTTA | 0.053

Sequence | PBM E-score
GTCGTGCA | -0.196
AAAGACTG | -0.128
AGTTATTC | -0.0856
CTGGGGAC | -0.392
GGGGTACC | -0.371
ATACAGTG | -0.135
ACTTGGTA | 0.0875
ATTGTAGA | 0.166
TAGTAGAA | 0.0663
GGGCTTAA | -0.178
GCGGCGAA | 0.427
CCTGCTCA | -0.222
CCGCTGAA | 0.0649
ACTACGAG | -0.0896
AAAAAGGT | -0.125
AAGTAACA | 0.0258
GCCTTGAC | -0.0588
GCCCAGAA | -0.194
CCTTAGCG | 0.0836
CTAGTAGC | -0.104
CCAGCGGC | 0.256
CTTAGACA | -0.0856

Sequence | PBM E-score
ACTCATAC | 0.17
AAGGTCTA | -0.154
AATCGCAT | -0.0148
ATTGAAGC | 0.0957
CCAACACA | 0.0312
TATTTGAA | 0.133
GGCATGAC | 0.0361
TACTAATA | 0.132
ATAACTAT | 0.0337
CTCATCTC | 0.0521
CGGTGACG | -0.0126
GCGCGCAC | 0.238
ACGCCGCC | 0.355
AGTGAGTA | 0.206
GTTAGACA | 0.117
AACGCGAA | 0.0866
GTCGAGTA | -0.134
CGTGTGTA | 0.108
CACTTTTA | 0.0976
CGCCTCAA | 0.1
AATGCGTG | -0.0465
AATCCGGA | -0.102

Sequence | PBM E-score
ATGCCGAA | 0.311
ATTCGAAT | 0.0494
GAAGACGA | -0.00816
ACGTTGCA | 0.0131
CCCAGGAA | -0.237
CCACCCTC | -0.124
CTTGGCTA | -0.0989
AACCTGTA | 0.0707
GACCCCGC | -0.034
ACTATTTG | 0.0918
AGTGGACG | 0.0487
AACCACAA | 0.179
GCGCCTTA | 0.399
ATTCCGAC | -0.0549
CGAAGCCA | 0.0367
AGGTACAA | 0.121
CGGAGGCA | 0.145
CGACAGAC | -0.174
GTAACTAC | 0.096
AAATCTCT | -0.127

Source: the supplement of paper PMC3334620
